# This is one part of the list.
# Legend:
# HSkMC = human skeletal muscle cells; assay: cytotoxicity call (relative viability < 0.9); details: 10 µM
# HepG2 = assay: cytotoxicity call (relative viability < 0.9); details: 10 µM
# S. aureus RN4220 = assay: growth inhibition call (relative growth <= 0.2); details: 50 µM
Structure (SMILES),cytotoxicity call (HSkMC),cytotoxicity call (HepG2),growth inhibition call (S. aureus RN4220)
COc1ccc(S(=O)(=O)N(C)C[C@@H]2OCCCC[C@H](C)Oc3ccc(NC(=O)Nc4c(C)noc4C)cc3C(=O)N([C@@H](C)CO)C[C@@H]2C)cc1,inactive,inactive,inactive
O=C(C[C@H]1CC[C@H]2[C@@H](COC[C@@H](O)CN2S(=O)(=O)c2ccc(F)cc2)O1)NCCN1CCCCC1,inactive,inactive,inactive
COc1ccc(S(=O)(=O)N(C)C[C@H]2Oc3ccc(NS(C)(=O)=O)cc3CC(=O)N([C@@H](C)CO)C[C@@H]2C)cc1,inactive,inactive,inactive
COCc1cn(CC[C@@H]2CC[C@H](NC(=O)CCN3CCCCC3)[C@H](CO)O2)nn1,inactive,inactive,inactive
CC(/C=C/C(=O)NO)=C\c1ccccc1OCc1cn(CCNC(=O)[C@@H](NS(=O)(=O)c2ccc(C)cc2)C(C)C)nn1,inactive,inactive,inactive
COC(=O)C1=C(C)NC(C)=C(C(=O)NCCCN2CCC(c3ccccc3)(c3ccccc3)CC2)[C@@H]1c1ccc([N+](=O)[O-])cc1,inactive,active,inactive
O=C1CCC(N2C(=O)c3ccccc3C2=O)C(=O)N1 (stereo unspecified),inactive,inactive,inactive
C[C@@H]1CCCCO[C@@H](CN(C)Cc2ccc3c(c2)OCO3)[C@@H](C)CN([C@H](C)CO)C(=O)c2cc(NC(=O)CCC(F)(F)F)ccc2O1,inactive,inactive,inactive
OCc1ccccc1-c1ccccc1,inactive,inactive,inactive
C[C@@H]1CN([C@H](C)CO)C(=O)c2c(c3ccccc3n2C)-c2ccccc2CO[C@H]1CN(C)Cc1ccc(-c2ccccc2)cc1,inactive,inactive,inactive
C[C@@H]1C=CNN1C(=O)c1cccnc1,inactive,inactive,inactive
O=C(C[C@H]1C=C[C@@H](NC(=O)CN2CCOCC2)[C@H](CO)O1)NC1CCC1,inactive,inactive,inactive
CC(C)NC(=O)N(C)C[C@H]1OCCCC[C@@H](C)Oc2ccc(NC(=O)Nc3ccc(F)cc3)cc2C(=O)N([C@H](C)CO)C[C@@H]1C,inactive,inactive,inactive
C[C@@H]1CN([C@H](C)CO)C(=O)Cc2cc(NS(=O)(=O)c3cn(C)cn3)ccc2O[C@@H]1CN(C)C(=O)Nc1ccccc1,inactive,inactive,inactive
Cc1noc(C)c1NC(=O)Nc1ccc2c(c1)C(=O)N([C@H](C)CO)C[C@@H](C)[C@@H](CN(C)C(=O)NC1CCCCC1)OCCCC[C@@H](C)O2,inactive,inactive,inactive
COc1ccc(S(=O)(=O)N(C)C[C@H]2OCc3cnnn3CCCC(=O)N([C@@H](C)CO)C[C@@H]2C)cc1,inactive,inactive,inactive
COC(=O)c1ccc[nH]1,inactive,inactive,inactive
O=C(CN1CCOCC1)N[C@@H]1CC[C@@H](CCn2cc(C3CC3)nn2)O[C@H]1CO,inactive,inactive,inactive
C[C@@H]1CN([C@H](C)CO)C(=O)c2cccc(NC(=O)Nc3cccc4ccccc34)c2O[C@@H]1CN(C)Cc1ccc2c(c1)OCO2,inactive,inactive,inactive
CCOC(=O)c1c[nH]c(CC(C)=O)nc1=O,inactive,inactive,inactive
C[C@@H]1CN([C@@H](C)CO)C(=O)c2cc(NC(=O)CCN3CCOCC3)ccc2O[C@H]1CN(C)S(=O)(=O)c1cccs1,inactive,inactive,inactive

Structure (SMILES),cytotoxicity call (HSkMC),cytotoxicity call (HepG2),growth inhibition call (S. aureus RN4220)
CC(C)C#Cc1ccc2c(c1)O[C@@H](CN(C)C(=O)c1cnccn1)[C@H](C)CN([C@H](C)CO)S2(=O)=O,inactive,inactive,inactive
CN(C)C(=O)C[C@@H]1C=C[C@@H](NC(=O)C2CC2)[C@@H](CO)O1,inactive,inactive,inactive
COC(=O)CCCCCCC(=O)Nc1ccc(NC(=O)CCCC[P+](c2ccccc2)(c2ccccc2)c2ccccc2)cc1,inactive,inactive,active
CCNC(=O)NC(=O)COC(=O)CNC(=O)COc1ccccc1,inactive,inactive,inactive
O=S1(=O)NCC2(COC2)O1,inactive,inactive,inactive
Br.NC(=O)C(c1ccccc1)(c1ccccc1)C1CCN(CCc2ccc3c(c2)CCO3)C1 (stereo unspecified),,,inactive
C[C@H]1CN([C@@H](C)CO)C(=O)c2cc(NS(=O)(=O)c3ccc(F)cc3)ccc2O[C@@H]1CN(C)C(=O)Nc1cccc2ccccc12,inactive,inactive,inactive
Oc1cc(O)c2c(c1)OC(c1ccc(O)c(O)c1)C(O)C2 (stereo unspecified) [CIANIDANOL [+-catechin]],,,inactive
CN(C)CC#Cc1ccc([C@@H]2[C@@H](CO)N3CCCCN(C(=O)CN(C)C)C[C@H]23)cc1,inactive,inactive,inactive
C[C@H]1CN([C@@H](C)CO)C(=O)c2cc(NC(=O)Nc3ccc(C(F)(F)F)cc3)ccc2O[C@@H]1CN(C)Cc1ccc(-c2ccccc2)cc1,,,inactive
CC(=O)N[C@H](CCCNC(=N)N)C(=O)N[C@H](CCCNC(=N)N)C(=O)N[C@H](CCCNC(=N)N)C(=O)N[C@H](CCCNC(=N)N)C(=O)N[C@H](CCCNC(=N)N)C(=O)N[C@H](CCCNC(=N)N)C(=O)N[C@H](CCCNC(=N)N)C(=O)N[C@H](CCCNC(=N)N)C(=O)N[C@H](CCCNC(=N)N)C(N)=O,,inactive,inactive
Cc1cc(C(=O)Nc2cccc3c2O[C@H](CN(C)S(=O)(=O)c2c(C)noc2C)[C@H](C)CN([C@@H](C)CO)C3=O)n(C)n1,inactive,inactive,inactive
CC1(C)[C@H](C(=O)O)N2C(=O)C[C@H]2S1(=O)=O,,,inactive
CC1(C)C(C(=O)O)N2C(=O)CC2S1(=O)=O (stereo unspecified),,,inactive
Cc1ccc(S(=O)(=O)N(C)C[C@H]2OCCCC[C@@H](C)Oc3ccc(NC(=O)Nc4cccc5ccccc45)cc3C(=O)N([C@@H](C)CO)C[C@@H]2C)cc1,inactive,inactive,inactive
O=C(O)C1=CC(O)C(O)C(O)C1 (stereo unspecified),,,inactive
C[C@@H]1CN([C@H](C)CO)C(=O)Cc2cc(NC(=O)Cn3cnnn3)ccc2O[C@H]1CN(C)S(C)(=O)=O,inactive,inactive,inactive
C[C@@H]1CN([C@@H](C)CO)C(=O)c2cc(N(C)C)ccc2O[C@@H](C)CCCCO[C@H]1CN(C)S(C)(=O)=O,inactive,inactive,inactive
CCOC(=O)N1CCC(=C2c3ccc(Cl)cc3CCc3cccnc32)CC1,,,inactive
Cc1c(C(=O)NN2CCCCC2)nn(-c2ccc(Cl)cc2Cl)c1-c1ccc(I)cc1,,,inactive
